Reference: article PMC4081074, “Brd4 activates P-TEFb for RNA polymerase II CTD phosphorylation” (Nucleic Acids Research, 2014)

What was measured:
[1] = biological target: T1, P-TEFb (Cdk9/CycT1 1-272) (UniProt P50750; O60563 part only); test: ITC; iTC200; 100 μM Brd4 PID titrated stepwise from the syringe into 10 μM P-TEFb (bound to AppNHp) or CycT1 1-272 in the cell; 298 K; 50 mM Hepes pH 7.6, 250 mM NaCl, 5% glycerol, 1 mM MgCl2, 1 mM TCEP; details: both partners purified
T1 construct: Cdk9, cyclin-dependent kinase 9, full length; the protocol for P-TEFb names no cleavage; also called positive transcription elongation factor b

[2] = biological target: T1, P-TEFb (Cdk9/CycT1 1-272); test: cell-based or functional assay
T1 sequence (P50750 whole entry, chain 1 of 2): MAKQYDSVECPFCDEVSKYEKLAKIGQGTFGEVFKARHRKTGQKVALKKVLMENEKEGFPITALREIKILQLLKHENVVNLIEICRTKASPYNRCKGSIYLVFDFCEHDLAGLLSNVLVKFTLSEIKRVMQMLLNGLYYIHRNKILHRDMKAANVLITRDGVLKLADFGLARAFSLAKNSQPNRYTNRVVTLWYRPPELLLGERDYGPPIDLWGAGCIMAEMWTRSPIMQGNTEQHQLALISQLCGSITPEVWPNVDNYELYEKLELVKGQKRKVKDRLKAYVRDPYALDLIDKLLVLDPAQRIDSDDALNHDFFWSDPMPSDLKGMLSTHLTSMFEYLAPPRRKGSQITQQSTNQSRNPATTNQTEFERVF
T1 sequence (O60563 1-272, chain 2 of 2, further chain): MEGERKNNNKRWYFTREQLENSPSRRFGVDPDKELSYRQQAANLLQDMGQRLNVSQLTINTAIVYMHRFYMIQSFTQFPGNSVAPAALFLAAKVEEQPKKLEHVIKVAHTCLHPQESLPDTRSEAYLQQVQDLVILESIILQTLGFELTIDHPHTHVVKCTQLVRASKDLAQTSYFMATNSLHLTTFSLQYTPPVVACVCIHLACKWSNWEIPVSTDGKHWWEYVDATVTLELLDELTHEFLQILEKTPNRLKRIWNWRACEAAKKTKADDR

Kd [1]: 470 ± 140 nM | dH [1]: -20.1 ± 1.2 kcal/mol | stoichiometry N [1]: 0.65 ± 0.03 | catalytic efficiency (Kcat/KM) of P-TEFb for GST-CTD phosphorylation in time course kinase assays, with PID against P-TEFb alone [2]: 2 fold
B1: Brd4 P-TEFb interaction domain (PID) (domain or fragment)
chain: not shown
notes: cloned from a synthetic plasmid codon optimized for E. coli; also called Brd4 PID; not shown: GST, N-terminal, cleaved
